The other results are listed elsewhere or left out.
What follows are compounds tested on T1, C. trachomatis L2/434/Bu expressing GFP (CTL2-GFP). Settings: total inclusion area; 28.5 h, 10 µM; inhibitor.
T1 construct: L2/434/Bu GFP intracellular growth in HeLa cells
Design: species or system HeLa; C. trachomatis total inclusion area by high-content imaging, normalised to DMSO
Method in brief: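 High-content imaging followed the bulk GFP/resorufin measurement: fixed, Hoechst-stained cells were scored for GFP inclusions and host nuclei per well. Total inclusion area and count served as growth proxies, nuclei number as the viability proxy. MIC calculation matched the bulk assay.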

Structure (SMILES)	% of control remaining
CCOC(=O)N1CCN(C(=O)c2oc3ccccc3c2C)CC1 [CBK023696]	64.2632
CCCC1CCN(CC2C=Cc3cc(-c4ccc(S(C)(=O)=O)cc4)ccc3O2)CC1 (stereo not shown) [CBK158647]	99.9196
Clc1ccc(COc2nccnc2N2CCN(CCOc3ccccc3)CC2)cc1Cl [CBK083091T]	63.6281
Cc1ccc(-n2nnnc2SCC(=O)O)cc1 [CBK287048]	92.7375
COc1cccc(CN2CCN(Cc3ccco3)[C@@H](C)C2)c1 [CBK284265]	51.4716
CC(C)NC(=O)N[C@H]1CC[C@]2(CC1)CC(=O)c1ccccc1O2 [CBK283389]	83.544
COc1ccc(NC(=O)c2cc([N+](=O)[O-])ccc2N2CCN(C)CC2)cc1 [CBK263017]	78.0393
CC1CCCC(C)N1C(=O)Cn1cnc2c(Cl)cc(Cl)cc2c1=O (stereo not shown) [CBK306222]	92.6958
O=C(CCS(=O)(=O)c1ccccc1)N(Cc1cccnc1)c1nc2c(F)cccc2s1 [CBK294422]	92.0574
CNC(=O)c1ccc(-c2cccc(COC)c2)nc1NCC1CC1 [CBK106322]	121.267
Cc1ccc2cc(C3CC(c4ccccc4)=NN3C(=O)CCC(=O)O)c(=O)[nH]c2c1 (stereo not shown) [CBK296127]	100.805
CCC(=O)N[C@H]1CC[C@]2(CC1)CNC(=O)c1ccccc1O2 [CBK281681]	55.6673
CCCNC(=O)CN(C)Cc1cn2cccc(C)c2n1 [CBK304800]	105.374
CCOc1ccc(-c2csc(NC(=O)c3cccnc3)n2)cc1 [CBK094747]	82.087
Fc1ccc([C@@H]2CN(Cc3ccccn3)C[C@H]2c2cc[nH]n2)cc1 [CBK285416]	75.0816
O=C(O)CCc1ccc(-c2ccc(Br)cc2)n1-c1ccccc1O [CBK131892]	83.5849
CC(C)CNC(=O)N(CCc1ccccc1)Cc1ccccc1 [CBK155339]	114.298
Cc1cc(Nc2ccccc2C)c2cc(C(=O)O)ccc2n1 [CBK269458C]	89.9431
Cc1[nH]nc(Nc2ccc(C(=O)O)cc2)c1[N+](=O)[O-] [CBK262726]	104.993
COCCn1cnnc1C(C)NC(=O)N(C)Cc1nc2ccccc2s1 (stereo not shown) [CBK307427]	68.0855
COC(=O)c1cc(CN2CCCN(S(=O)(=O)c3ccc(-n4cnc(Cl)c4Cl)cc3)CC2)cn1C [CBK063080]	18.8957

Structure (SMILES)	% of control remaining
N#Cc1ccc(COc2cccc(C(F)(F)F)c2)cc1 [CBK002811]	56.665
Cc1nn(CC(=O)NC2CCC2)c(=O)c2cc3sccc3n12 [CBK284110]	82.6465
CC(C)CNc1nc2c(ncn2[C@H]2C[C@@H](O)[C@@H](CO)O2)c(=O)[nH]1 [CBK201198]	121.696
COc1ccc(C(=O)NCc2ccccc2)c(OC)n1 [CBK200190]	111.865
CCOC(=O)Cn1ccc2ccnc(-c3cccc(OC)c3)c21 [CBK284707]	70.2517
Cc1ocnc1C(=O)Nc1nc2c(cc1C#N)CCC2 [CBK306365]	71.6023
NC1CCN(c2ncccn2)CC1 [CBK174054]	100.638
O=C(CN1CCCCC1CN1CCOCC1)NCc1ccccn1 (stereo not shown) [CBK304375]	77.4619
O=C(NC1CC1)[C@@H]1C=CCN1C(=O)Nc1ccccc1C(F)(F)F [CBK284276]	74.2303
Nc1ncc(-c2cccc(O)c2)nc1N1CCOCC1 [CBK063376]	84.8496
c1csc(N2CCN(c3nccn4cnnc34)CC2)n1 [CBK305185]	93.2117
NC(=O)CN1CCCC2(CCCCc3ccccc3OCC(=O)NC2)C1 (stereo not shown) [CBK292058]	84.7897
c1cncc(-c2nnc(SCc3nc4ccccc4[nH]3)o2)c1 [CBK264543]	105.492
Cc1cnc2[nH]c(C(F)(F)F)c(CN3CCSCC3)c2c1 [CBK284767]	101.821
CN(C)CCN1CCN(c2nc(-c3cccnc3)cnc2N)CC1 [CBK063503]	135.966
O=[N+]([O-])c1ccc(/C=N/Nc2nnc3c(n2)[nH]c2ccccc23)cc1 [CBK261486]	105.106
O=C(c1ccc(Br)o1)N1CCc2ccc(S(=O)(=O)N3CCOCC3)cc21 [CBK028953]	71.2244
O=c1cc(-c2cccc([N+](=O)[O-])c2)c2ccc(OCc3cc4c(cc3Cl)OCO4)cc2o1 [CBK265652]	75.9573
O=C(Nc1ccnn1Cc1cc(Br)cs1)c1ccc2ncsc2c1 [CBK296713]	108.013
Cc1cccnc1CN1CCC2(CCc3ccccc3C(=O)N2)C1 (stereo not shown) [CBK284611]	87.5275
c1ccc2c(Sc3cnccn3)cccc2c1 [CBK085841]	105.229

Structure (SMILES)	% of control remaining
CCCOCCN1CCN(C(=O)c2nn3cc(C)cnc3c2Cl)CC1 [CBK306690]	50.1326
CCCCCNC(=O)N1CCN(CCCC(c2ccc(F)cc2)c2ccc(F)cc2)CC1 [CBK024917C]	89.164
CC(C#CCN(C)C)N1C(=O)CCC1C (stereo not shown) [CBK008291G]	93.0529
CCOC(=O)c1sc(NS(=O)(=O)Cc2ccccc2)nc1C [CBK047448]	71.4578
O=C(O)CCN1C(=O)c2ccc(NC(=O)c3ccccc3Cl)cc2C1=O [CBK268413]	75.3631
OCCNc1cncc(-c2ccccc2)n1 [CBK065857]	100.534
O=S(=O)(NCc1ccccc1)c1cc(S(=O)(=O)c2ccc(Cl)cc2)ccc1Cl [CBK263207]	63.8598
Cc1cccc(CNc2nccnc2-c2cccc(N)c2)c1 [CBK038080]	92.0111
Cc1nc(-c2ccccc2F)sc1C(=O)Nc1ccccn1 [CBK287979]	107.955
Cc1ccc(CN2CC[C@H]3[C@@H](C2)[C@H](c2ccsc2)CN3C(=O)c2ccc(F)cc2)cc1 [CBK285637]	85.7064
CC(C)(C)OC(=O)N1CCCC(C(=O)Nc2ccccn2)C1 (stereo not shown) [CBK304524]	64.6069
CCc1nc(NC(=O)c2ccnc(Cl)c2)sc1C [CBK298287]	87.5927
O=C(CN1C(=O)C2C3c4ccccc4C(c4ccccc43)C2C1=O)OCC(=O)c1ccc(F)cc1 (stereo not shown) [CBK264861]	113.509
CC1CCCCN1S(=O)(=O)c1ccc(NCCC(=O)c2ccc(Cl)cc2)cc1 (stereo not shown) [CBK268529]	102.07
Cc1nc(C2(O)CCCN(C3CCCC3)CC2)sc1COc1ccc(F)c(F)c1 (stereo not shown) [CBK286259]	64.4466
C(=C\C1Nc2ccccc2-c2nnc(SCc3ccccc3)nc2O1)/c1ccccc1 (stereo not shown) [CBK264447]	91
Brc1ccccc1-c1nnc2n1CCCCC2 [CBK200092]	93.0559
Brc1cn2ccnc2c(NCCc2ccccn2)n1 [CBK066244]	60.3897
COc1ccc(-c2cnc3[nH]c(=O)n(Cc4cccs4)c3n2)c(OC)c1OC [CBK064716]	72.2542
CS(=O)(=O)N1CCN(Cc2cc(Br)ccc2O)CC1 [CBK263620G]	94.9068
COc1ccc2c(c1)c(=O)oc1c(CN3CCCC3)c(O)ccc12 [CBK266814]	88.5884

Structure (SMILES)	% of control remaining
Nc1cc2ccccc2c(-c2ccc(OC(F)(F)F)cc2)n1 [CBK085725]	58.9277
Cc1cccc(NC(=O)c2n[nH]c3ccccc23)c1 [CBK288231]	81.6122
O=c1[nH]c2ncc(-c3cccc(-c4ccccc4)c3)nc2n1CCCN1CCOCC1 [CBK064311]	84.7624
O=C(O)c1cc(S(=O)(=O)NCc2ccco2)ccc1Br [CBK306193]	43.0951
Cc1cnc2[nH]c(C(C)C)c(CN3CCCOCC3)c2c1 [CBK284742]	106.305
O=C(CN(c1ccc(F)cc1)S(=O)(=O)c1ccccc1)Nc1ccc2c(c1)OCCO2 [CBK265215]	114.689
O=C(Nc1nccs1)c1ncn[nH]1 [CBK028821]	95.9209
COc1cc(C(=O)N/C(=C\c2ccc(O)cc2)C(=O)O)cc(OC)c1OC [CBK262607]	91.5889
O=C(O)C1CCN(S(=O)(=O)c2ccc(F)cc2)CC1 [CBK100196]	64.0007
CC1=NN(c2nc(-c3ccc(Br)cc3)cs2)C(=O)C1/N=N/c1cccc(CO)c1 (stereo not shown) [CBK262429]	108.1
O=[N+]([O-])c1cc(CN2CCCCC2)c2cccnc2c1O [CBK265121]	109.17
CCCCCC1/C(=N\O)CCC1CC(=O)OC (stereo not shown) [CBK019978]	39.9377
Cc1c(NC(=S)NC(=O)COc2ccc(Cl)cc2)cccc1C(=O)O [CBK265070]	120.413
COc1ccccc1-c1cnc(N)c(NC2CCOCC2)n1 [CBK063853]	115.032
O=C(NCCCN1CCOCC1)c1c(Cl)cccc1Cl [CBK263631]	109.036
O=C(CC(C(=O)O)C1CCCO1)Nc1ccc(Cl)cc1Cl (stereo not shown) [CBK261509]	108.493
CNC(=O)c1cn2cc(-c3cccs3)n(CC3CC3)c(=O)c2n1 [CBK306838]	98.9465
CN1CCC[C@H]1C(=O)N1CCC(Cn2cncn2)(C2CCCCC2)CC1 [CBK136818]	119.943
COc1cc(OC)c(CN2CC3(C)CC2CC(C)(C)C3)cc1Br (stereo not shown) [CBK307074]	35.2047

Reference: publication PMC12040169 (PLOS Biology, 2025)
